Data published in publication PMC4336329 (PLoS ONE, 2015).
In all, about 310,000 compounds went through this assay and about 14,000 (4.5%) showed an effect of 50% or more. The effect is printed as a negative number. The list shows a part of the results.

target: human ether-à-go-go-related gene (hERG) potassium channel (human, UniProt Q12809); experiment: primary screen, population patch clamp on CHO cells stably expressing hERG
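Further: peak tail current of the secondary pulse compared with the same well before compound.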

Sequence of human ether-à-go-go-related gene (hERG) potassium channel (Q12809 whole entry, looked up): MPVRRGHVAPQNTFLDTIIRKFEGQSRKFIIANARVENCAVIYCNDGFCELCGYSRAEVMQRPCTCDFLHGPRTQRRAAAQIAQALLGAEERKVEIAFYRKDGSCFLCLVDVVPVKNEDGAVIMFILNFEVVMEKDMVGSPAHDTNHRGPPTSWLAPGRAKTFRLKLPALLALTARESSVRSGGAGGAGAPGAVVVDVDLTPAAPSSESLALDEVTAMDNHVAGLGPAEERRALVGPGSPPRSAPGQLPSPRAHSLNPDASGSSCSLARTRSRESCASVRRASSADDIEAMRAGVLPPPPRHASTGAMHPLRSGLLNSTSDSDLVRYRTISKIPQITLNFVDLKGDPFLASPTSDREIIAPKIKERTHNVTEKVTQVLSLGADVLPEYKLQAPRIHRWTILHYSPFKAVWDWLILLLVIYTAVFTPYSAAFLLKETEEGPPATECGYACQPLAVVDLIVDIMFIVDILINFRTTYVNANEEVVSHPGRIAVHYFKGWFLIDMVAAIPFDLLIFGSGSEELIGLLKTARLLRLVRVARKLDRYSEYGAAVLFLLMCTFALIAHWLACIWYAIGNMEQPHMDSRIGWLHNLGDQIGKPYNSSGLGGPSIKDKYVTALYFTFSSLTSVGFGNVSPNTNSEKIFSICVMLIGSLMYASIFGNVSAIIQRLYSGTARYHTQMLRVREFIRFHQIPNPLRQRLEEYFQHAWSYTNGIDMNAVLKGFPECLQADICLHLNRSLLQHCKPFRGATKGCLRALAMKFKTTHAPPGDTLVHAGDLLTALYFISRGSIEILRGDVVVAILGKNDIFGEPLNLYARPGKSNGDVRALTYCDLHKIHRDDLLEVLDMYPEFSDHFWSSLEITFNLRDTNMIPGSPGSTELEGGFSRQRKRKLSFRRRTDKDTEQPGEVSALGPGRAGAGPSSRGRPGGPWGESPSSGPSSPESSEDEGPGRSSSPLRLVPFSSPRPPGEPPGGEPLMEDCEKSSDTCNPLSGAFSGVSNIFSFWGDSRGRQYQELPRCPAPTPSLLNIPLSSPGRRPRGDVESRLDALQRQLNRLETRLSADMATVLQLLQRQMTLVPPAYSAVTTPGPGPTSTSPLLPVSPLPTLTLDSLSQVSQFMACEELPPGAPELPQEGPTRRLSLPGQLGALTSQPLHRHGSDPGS

SMILES	hERG current change (%, negative = inhibition) at 10uM
Cc1cs/c(=N\N=C2CCCCC2)n1Cc1ccco1	33.7%
O=C(/C=C/c1c(F)cccc1Cl)Nc1ccc(S(=O)(=O)Nc2ncccn2)cc1	14.8%
Cc1ccc(-n2c(O)c(/C=N/Nc3ccc(S(=O)(=O)N4CCOCC4)cc3[N+](=O)[O-])c3ccccc3c2=O)c(C)c1	5.7%
COc1ccc(CCNC(=O)c2ccc(CSc3ccccc3)o2)cc1	-7.13%
Cc1nc2c(C(=O)NCc3ccco3)cnn2c(C)c1Cc1ccc(F)cc1Cl	-5.06%
CCOC(=O)C(C)NC(=O)CCc1nnc2ccc(N3CCC(C)CC3)nn12 (centres unmarked)	12.3%
O=C(O)c1cccc(-n2cccc2/C=C\[N+](=O)[O-])c1	33.7%
c1ccn2c(SCc3ccc4c(c3)OCO4)nnc2c1	11.9%
CCn1c(C)[n+](CC)c2ccc(S(=O)(=O)N(C)C)cc21.[I-]	26.9%
COc1cc(/C=C/C(C)=O)cc(OC)c1OC	2.53%
O=C1c2ccccc2NC(c2ccccc2)N1NS(=O)(=O)c1ccccc1 (centres unmarked)	5.62%
O=C(NCc1cccc(Cl)c1)c1ccncc1	2.66%
Cc1ccc2[nH]c3c(c2c1)CN(C(=O)CN1CCN(C(=O)c2ccco2)CC1)CC3	-5.97%
COc1cccc2c(=O)c(SC(F)(F)C(F)C(F)(F)F)c(C)[nH]c12 (centres unmarked)	-18.1%
COc1ccccc1NC(=O)C(C)OC(=O)/C=C/c1ccc2ccccc2n1 (centres unmarked)	-7.77%
O=C1NC(=O)N(c2ccc(Br)cc2)C(=O)/C1=C/c1ccsc1	15.5%
Cc1ccc2oc(-c3ccccc3)nc2c1	11.3%
CCN(Cc1ccccc1)S(=O)(=O)c1ccc(S(=O)(=O)N(Cc2ccccn2)Cc2ccco2)cc1	18.6%
COc1ccc(NC(=O)C2CC(=O)N/C(=N/N=C/c3ccccc3)S2)cc1 (centres unmarked)	10.4%
CS(=O)(=O)N1CCCC(C(=O)NCc2ccccc2Cl)C1 (centres unmarked)	3.96%
O=C(Nc1ccc(OC(F)F)cc1)c1ncc(Cl)c(Cl)c1Cl	1.63%
Cc1cccc(C)c1-n1cccc1/C=C1/C(=N)N2C(=NC1=O)SN=C2S(C)(=O)=O	-1.11%

SMILES	hERG current change (%, negative = inhibition) at 10uM
COc1ccc2nc(/C=N/NC(=O)[C@H](C)NC(=O)OC(C)(C)C)ccc2c1	-7.25%
O=C(NCCCCc1ccccc1)Nc1cccc(F)c1	-8.25%
COc1ccc(C(=O)/C=C2/c3ccccc3CC(C)(C)N2C)cc1OC.Cl	-11%
Cc1ccc(N2C(=O)N(CC(=O)Nc3ccc(F)c(F)c3)C(=O)C2C)cc1 (centres unmarked)	10.4%
COc1ccc(C(CC(=O)N2CCC3(CC2)OCCO3)NS(=O)(=O)c2ccc(F)cc2)cc1 (centres unmarked)	-2.22%
Brc1ccc(/C=N/Nc2ncnc3c2cnn3Cc2ccccc2)cc1	14.9%
N#CC1(NC(=O)COC(=O)CNC(=O)c2sc3ccccc3c2Cl)CCCCC1	-29.2%
COc1ccc(NC(=O)CCN2C(=O)c3ccccc3S2(=O)=O)c(OC)c1	1.28%
NNc1ccc(S(=O)(=O)N2CCCCC2)cn1	15.5%
COc1ccc2c(c1)nc(NCCCO)n2Cc1ccccc1	-13.9%
Cc1cc(C)n(-c2cc(N3CCN(S(=O)(=O)c4ccc(Br)cc4)CC3)ccc2[N+](=O)[O-])n1	-21.3%
COc1ccc([C@H]2CC(=O)C=C(c3ccc4ncccc4c3)C2)cc1	-3.25%
Cc1nc2ncnn2c(C)c1CCC(=O)N1CCc2ccccc21	-80.6%
O=C(COc1ncnc2sccc12)N1CCc2ccccc2C1	0.518%
CCc1ccc(CN2CCCC(C(=O)Nc3ccc(-c4cscn4)cc3)C2)o1 (centres unmarked)	-25.6%
CCOc1ccc(NC(=O)c2cc(S(=O)(=O)N3CCOCC3)cs2)cc1	12.4%
CN1CCN(c2ccccc2NC(=O)COc2ccc(Cl)cc2)CC1	-59.9%
Cc1ccc(NC(=O)CSc2ncccc2C(=O)Oc2cccc([N+](=O)[O-])c2)cc1Cl	15.6%
O=C(c1cccs1)N(Cc1ccc(F)cc1)C1CCS(=O)(=O)C1 (centres unmarked)	-21.1%
O=C(CSc1nnc(-c2cccs2)n1-c1cccc(Cl)c1)c1cccc2c1OCCO2	21.2%
CCOc1cc(-c2nnc(NC(=O)c3ccco3)o2)cc(OCC)c1OCC	-1.13%
O=C(NCCCc1ccc(F)cc1)C1CCC(=O)N(CCCN2CCCC2=O)C1 (centres unmarked)	15.1%

SMILES	hERG current change (%, negative = inhibition) at 10uM
CCN(CC)S(=O)(=O)c1ccc(/C=C/C(=O)Nc2c(C)n(C)n(-c3ccccc3)c2=O)cc1	19.4%
COc1ccc(NC(=O)c2nc[nH]c2C(=O)N[C@@H](C)c2ccccc2)cc1	-10.4%
O=C1CCC(C(=O)N2CCCC(C(=O)c3ccc4ccccc4c3)C2)=NN1 (centres unmarked)	-8.31%
C/C(=N\NC(=O)OC(C)(C)C)c1ccc(-n2ccnc2)cc1	-16.9%
O=C(COc1ccccc1[N+](=O)[O-])Nc1cc(C(=O)O)cc(C(=O)O)c1	15.7%
COc1ccc(CNC(=O)Cn2c(=O)n(CC(=O)N3CCCCC3)c(=O)c3sccc32)cc1	15.6%
Cl.O=C(O)c1ccc(CNCc2cccc(Cl)c2Cl)cc1	-8.92%
O=C1CC(c2cccc(Cl)c2)Cc2nc(N3CCOCC3)ncc21 (centres unmarked)	-9.56%
CCCCC(=O)NC(=S)Nc1cccc(NC(=O)c2ccco2)c1	3.61%
CC(=O)Nc1ccc(NS(=O)(=O)c2ccc3c(c2)NC(=O)CC(=O)N3)cc1	-31.1%
COc1c(C(CC(C)C)OC(C)=O)ccc2c1C(=O)OCc1cc(C)cc(O)c1O2 (centres unmarked)	-2.31%
COc1ccc(-c2cc([C@H]3[C@@H]4C=CCC[C@@]4(C)C(=O)N3Cc3ccccc3)ccc2F)cc1OC	12.5%
CCN1CCN(CCOc2ccccc2OCc2ccccc2)CC1.O=C(O)C(=O)O	-73.2%
O=C(NCc1nnc2c3ccccc3c(-c3ccccc3)nn12)c1ccccc1Cl	-78.9%
CCC(C)(C)C1CCc2[nH]nc(C(=O)O)c2C1 (centres unmarked)	9.18%
O=C(NCCc1ccccc1)C(=O)NCc1ccncc1	12.1%
O=C1CCN(Cc2ccc([N+](=O)[O-])cc2)CCN1CCO	-6.93%
COc1ccc(NC(=O)c2ccc(Oc3ncccn3)cc2)cc1	10.4%
COc1ccc(CCNC(=O)COc2ncnc3ccccc23)cc1OC	16.3%
CN(CC(=O)Nc1cccc(F)c1)CC(=O)N1CCCCC1	1.48%
CCN(CC)CC(=O)Nc1nn(-c2ccccc2)nc1C(N)=O	0.619%
Cc1ccn2cc(CCNC(=O)C3CC=CCC3C(=O)O)nc2c1 (centres unmarked)	-9.24%

SMILES	hERG current change (%, negative = inhibition) at 10uM
Cc1nc(Cl)c(C#N)c2c1CCCC2	-10.9%
CCOC(=O)c1ccc(NC(=O)N2CC(C)OC(C)C2)cc1 (centres unmarked)	-3.62%
COCCNC(=O)c1onc(CSc2ccccc2F)c1C(=O)O	7.29%
COc1ccc(C(=O)Nc2ccccc2-c2ccccc2)cc1Cl	-1.38%
O=C(CNS(=O)(=O)c1ccc(Cl)cc1)OCC(=O)N1CCCc2ccccc21	-2.96%
CS(=O)(=O)N1CCN(c2ccc(NC(=O)c3ccc(Br)o3)cc2)CC1	-2.68%
NC(=O)Nc1ccc(C(=O)OCC(=O)NC2CCCCC2)cc1	21.4%
CC(/C=C/c1ccc2c(c1)OCO2)=N/NC(=O)C1COc2ccccc2O1 (centres unmarked)	-5.9%
CCOC(=O)c1oc2ccccc2c1CSc1nnnn1-c1ccc(C)cc1	3.63%
CCCC(=O)Nc1cccc(C(=O)Nc2ccccc2OCC)c1	-14.7%
Cc1oc2ccc(OS(C)(=O)=O)cc2c1C(=O)OC(C)C	-9.09%
CC(C)=CCc1c(O)cc(O)c2c(=O)c(O[C@@H]3O[C@@H](C)[C@H](O)[C@@H](O)[C@H]3O)c(-c3ccc(O)cc3)oc12	17.1%
CCOC(=O)N1CCC(NC(=O)CN2C(=O)CSc3ncccc32)CC1	-2.15%
Fc1ccc(C2=NOC(c3nnc(-c4ccccc4)o3)C2)cc1 (centres unmarked)	-16.1%
Nc1ncnc(Nc2ccccc2Cl)n1	9.95%
COc1ccc(CNc2nc3nc(C)cc(C)n3n2)cc1OC	-12.5%
CC1CCN(S(=O)(=O)c2ccc3c(c2)CC(C)N3C(=O)C2CCC2)CC1 (centres unmarked)	-2.61%
OCCOCCOc1cccc2[nH]ccc12	9.29%
CCN(CC)c1ccc2cc(S(=O)(=O)c3ccc(Cl)cc3)c(=O)oc2c1	-13.3%
COC(=O)c1[nH]c2ccccc2c1NS(=O)(=O)c1ccc(F)c(C)c1	-1.32%
